This is an account of results in US20120283182A1.

This experiment deals with 'd' subunit of F1Fo ATP synthase (dF1Fo) (rat) (UniProt P31399). Put plainly: cell-based or functional assay.
Chain of UniProt P31399 (P31399 2-161 limits assumed): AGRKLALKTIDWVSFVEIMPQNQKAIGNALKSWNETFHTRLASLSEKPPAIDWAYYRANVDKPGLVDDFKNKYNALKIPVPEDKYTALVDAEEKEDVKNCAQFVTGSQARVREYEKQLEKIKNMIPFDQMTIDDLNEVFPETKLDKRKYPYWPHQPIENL

“delta protein kinase C (δPKC) (from UniProt P09215 1-673) (enzyme)” displayed an inhibition of basal oligomycin-sensitive F1Fo ATPase activity in NCMs (hypoxia) of 79%.
